The results in this text go back to PMC4336329 (PLoS ONE, 2015).

Screen size: about 310,000 compounds; about 14,000 (4.5%) showed an effect of 50% or more. The effect is printed as a negative number. This is one part of the list.
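Note: peak tail current of the secondary pulse compared with the same well before compound.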

The target of this test is human ether-à-go-go-related gene (hERG) potassium channel (human, UniProt Q12809). The test can be described thus: primary screen, population patch clamp on CHO cells stably expressing hERG.
Sequence of human ether-à-go-go-related gene (hERG) potassium channel (Q12809 whole entry, looked up): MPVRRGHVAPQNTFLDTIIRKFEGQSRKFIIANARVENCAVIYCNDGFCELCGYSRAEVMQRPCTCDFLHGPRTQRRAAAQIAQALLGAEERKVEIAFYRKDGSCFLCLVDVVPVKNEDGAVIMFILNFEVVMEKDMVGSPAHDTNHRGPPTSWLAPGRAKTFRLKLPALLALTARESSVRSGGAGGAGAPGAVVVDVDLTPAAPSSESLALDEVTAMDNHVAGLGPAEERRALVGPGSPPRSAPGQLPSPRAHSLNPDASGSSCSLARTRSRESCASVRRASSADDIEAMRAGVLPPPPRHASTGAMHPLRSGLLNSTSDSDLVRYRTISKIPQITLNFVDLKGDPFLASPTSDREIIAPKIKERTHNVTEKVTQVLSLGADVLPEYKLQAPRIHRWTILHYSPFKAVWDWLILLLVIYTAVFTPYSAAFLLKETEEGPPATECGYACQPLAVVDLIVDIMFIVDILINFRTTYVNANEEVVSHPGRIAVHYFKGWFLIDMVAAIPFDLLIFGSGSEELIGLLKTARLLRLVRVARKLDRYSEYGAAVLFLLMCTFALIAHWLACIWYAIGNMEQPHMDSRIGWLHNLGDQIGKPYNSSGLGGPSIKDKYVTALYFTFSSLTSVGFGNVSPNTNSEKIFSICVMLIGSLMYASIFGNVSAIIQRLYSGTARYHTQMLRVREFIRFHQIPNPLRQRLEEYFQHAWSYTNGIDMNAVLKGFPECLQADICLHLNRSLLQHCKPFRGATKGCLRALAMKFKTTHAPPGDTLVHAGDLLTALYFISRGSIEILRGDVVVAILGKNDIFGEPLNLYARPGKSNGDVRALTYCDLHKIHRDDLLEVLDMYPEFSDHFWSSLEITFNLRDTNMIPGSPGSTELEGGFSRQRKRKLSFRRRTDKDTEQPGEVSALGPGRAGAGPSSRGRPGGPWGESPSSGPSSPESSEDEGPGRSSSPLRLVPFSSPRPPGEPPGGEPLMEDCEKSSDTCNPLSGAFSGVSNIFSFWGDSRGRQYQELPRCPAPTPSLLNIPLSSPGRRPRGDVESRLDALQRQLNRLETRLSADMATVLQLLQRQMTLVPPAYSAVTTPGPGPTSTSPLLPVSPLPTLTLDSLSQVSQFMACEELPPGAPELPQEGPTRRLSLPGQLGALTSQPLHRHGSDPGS
As for `O=C(NCCCCc1ccccc1)Nc1ccc(F)cc1`, the “hERG current change (%, negative = inhibition) at 10uM” value is 18.1%. Then `CCOc1cc(C2C(C(=O)N3CCOCC3)=C(C)NC3=C2C(=O)CCC3)ccc1O` (stereo not shown), with 2.55%; and `CCCC(C)NC(=O)c1ccc(-c2ccccc2)cc1` (stereo not shown), with 15.4%. In the case of `O=C(CNC(=O)c1ccc(S(=O)(=O)N2CCCC2)cc1)N/N=C/c1ccccc1Cl`, the “hERG current change (%, negative = inhibition) at 10uM” value is -8.14%. Then `CC(C)CCn1c(N)c(C(=O)NCc2cccs2)c2nc3ccccc3nc21`, with -3.01%; and `O=C(NN1C(=O)C2C3C=CC(C3)C2C1=O)c1ccncc1` (stereo not shown), with 2.17%. Then `COC(=O)c1nn(-c2cccc(Cl)c2)ccc1=O`, with 6.98%; and `CN1OC(Cn2cc(C#N)c(=O)n(C)c2=O)CC1c1ccccc1` (stereo not shown), with 12.5%; and `C1=C2C[N+]3(CCCC3)CC2Cc2ccc3ccccc3c21.[Br-]` (stereo not shown), with 5.2%. Then `CC(SCc1ccccc1)C(=O)NC1CCCC1` (stereo not shown), with 3.27%; and `O=C1CN(C(=O)COC(=O)CCS(=O)(=O)c2ccccc2)c2ccccc2N1`, with 19.1%. With `O=C(O)Cn1c(SCc2cccc3ccccc23)nc2ccccc21`, the “hERG current change (%, negative = inhibition) at 10uM” value is on record as 6.65%. Then `O=C(Nc1ccccc1C(=O)NC(Cc1ccccc1)C(=O)O)c1ccccc1` (stereo not shown), with 23.9%; and `OC1CCN(Cc2cccc(Oc3ccccc3)c2)CC1`, with 6.4%.

Take `Clc1ccc2nc(CSc3nc4ccccc4o3)cn2c1`: the “hERG current change (%, negative = inhibition) at 10uM” value is -12.1%. Then `Cc1nn2c(-c3ccncc3)ccnc2c1Cl`, with 4.94%; and `Cc1ccc2c(CSc3nc4ccccc4c(=O)n3CCCO)cc(=O)oc2c1C`, with 1.98%; and `COc1ccc(CCNc2oc(COc3ccccc3Cl)nc2C#N)cc1OC`, with -8.13%.

Consider `CCC1Oc2ccc(C)cc2N(CC(=O)NCc2cccc(OC)c2)C1=O` (stereo not shown), for which the “hERG current change (%, negative = inhibition) at 10uM” value is reported as -8.94%. Take `COc1cc(C(=O)NCc2ccco2)cc(OC)c1OC`: the “hERG current change (%, negative = inhibition) at 10uM” value worked out at 15.1%. On to `O=C1CCCCC1C(Nc1ccc(Br)cc1)c1ccccc1` (stereo not shown), for which the “hERG current change (%, negative = inhibition) at 10uM” value is 4.34%. Then `CCCCNC(=O)c1cc2c(-c3ccc(Cl)cc3)nn(C)c2s1`, with -7.09%; and `Cn1c(SCC(=O)NC(C)(C)C)nc(O)cc1=O`, with 5.81%. With `CC[N+](C)(C)c1cccc(O)c1.[Cl-]`, the “hERG current change (%, negative = inhibition) at 10uM” value is listed as 8.67%.

Take `Cc1ccc2c(c1)N(CCCC(=O)NCc1ccc3c(c1)OCO3)C(=O)CO2`: the “hERG current change (%, negative = inhibition) at 10uM” value was -17.3%. Then `CCCNC(=O)COc1ccccc1[N+](=O)[O-]`, with -13.3%; and `Cn1ccc(O)c(C#N)c1=O`, with 7.16%.

In the case of `CCn1c(Cc2ccccc2)nnc1SCC(=O)c1cccc([N+](=O)[O-])c1`, the “hERG current change (%, negative = inhibition) at 10uM” value is recorded as -24%. Then `CCC(NC(=S)Nc1ccccc1)C(=O)O` (stereo not shown), with 5.38%. Then `CCOc1ccccc1N1CCN(CC(=O)NC(C)c2ccccc2)CC1` (stereo not shown), with 5.56%; and `Cc1[nH]c2ccccc2c1/C=N/NC(=O)c1cc(-c2cccs2)[nH]n1`, with 4.01%; and `COc1ccc(NS(=O)(=O)c2cc(NC(=O)C3CCCCC3)ccc2N2CCOCC2)cc1`, with -0.943%. Regarding `CCN1C(=O)[C@H]2[C@@H](c3ccc(C)cc3)N3C(=O)N(c4ccc(C)cc4)C(=O)[C@@]3(Cc3ccc(Cl)cc3)[C@H]2C1=O`, the “hERG current change (%, negative = inhibition) at 10uM” value was 10.9%. Then `OC(COc1ccc2ccccc2c1Cl)CN1CCOCC1` (stereo not shown), with -24.5%. Then `CCOC(=O)C1=C(Nc2ccccc2)CC(C)(O)C(C(=O)OCC)C1c1ccccc1` (stereo not shown), with 15%. As for `N/C(=N\OC(=O)COc1ccc2ccccc2c1)c1ccncc1`, the “hERG current change (%, negative = inhibition) at 10uM” value worked out at 16.6%.

In the case of `CCc1nnc(NC(=O)CSCc2cc(=O)n3ccsc3n2)s1`, the “hERG current change (%, negative = inhibition) at 10uM” value came to 18.8%.

As to `Cc1ccc(-n2c(-c3ccc([N+](=O)[O-])cc3)nc3ccccc3c2=O)cc1`, the “hERG current change (%, negative = inhibition) at 10uM” value is on record as -25%. Then `COc1ccc(NC(=O)c2sccc2-n2cccc2)cc1`, with 3.64%; and `COc1cccc(N2CCN(S(=O)(=O)c3ccc(-c4cnc(C5CC5)o4)cc3)CC2)c1`, with 13.8%. Then `CC1C=CCC2C(=O)N(c3ccccc3OC(=O)c3ccco3)C(=O)C12` (stereo not shown), with 9.53%; and `COCCOc1cc(NC(=O)c2sccc2Oc2ccc([N+](=O)[O-])cc2F)c(Cl)cc1Cl`, with -0.0545%; and `CC(C)Cc1nnc(NC(=O)CSc2nc(-c3ccccc3)cc(=O)[nH]2)s1`, with 3.94%. Then `COc1cccc2c(=O)n(CC(=O)Nc3ccccc3)ccc12`, with 0.612%; and `CCN1C(=O)C(NC(C)=O)c2cc(Br)ccc21` (stereo not shown), with 0.0677%; and `COc1ccc(NC(=O)NNC(=O)c2ccc3ccccc3c2)cc1OC`, with 7.67%. Consider `CN1CCN(Cc2cc(Cl)c3cccnc3c2OC(=O)c2cccs2)CC1`, for which the “hERG current change (%, negative = inhibition) at 10uM” value is -53.3%. For `COc1ccccc1C(=O)NCCC(=O)NC1=NCCS1`, the “hERG current change (%, negative = inhibition) at 10uM” value was determined as 6.65%. For `CCc1ccc(-c2cc(C(F)(F)F)n3nc(C(=O)Nc4c(C)nn(Cc5ccc(F)cc5)c4C)cc3n2)s1`, the “hERG current change (%, negative = inhibition) at 10uM” value is recorded as 0.54%.

`CCN(CC)C(=O)CC(c1ccc(F)cc1)c1ccc(OC)cc1` (stereo not shown): the “hERG current change (%, negative = inhibition) at 10uM” value was -25.1%.

As for `O=C(Nc1ccc(Cl)cn1)c1ccccc1F`, the “hERG current change (%, negative = inhibition) at 10uM” value is -1.25%. Then `C=CCNC(=O)c1ccc(-c2nc(-c3ccccc3)cs2)cc1`, with 1.85%; and `Cc1[nH]nc2c1C1(CCC(c3ccccc3)CC1)C(C#N)=C(N)O2` (stereo not shown), with 6.12%. Then `Cc1cc(Cl)c(S(=O)(=O)NCC2CCCO2)cc1OCC(=O)NC1CCCCC1` (stereo not shown), with -24.8%; and `COc1ccc(NC(=O)c2ccc(NCCCN3CCOCC3)c([N+](=O)[O-])c2)cc1`, with -3.71%. Consider `CCCc1[nH]nc2c1C(CCC)C(C#N)=C(N)O2` (stereo not shown), for which the “hERG current change (%, negative = inhibition) at 10uM” value is recorded as -11.6%. In the case of `COC(=O)CN1C(=O)N/C(=C/c2cc(Cl)c(OC)c(OC)c2)C1=O`, the “hERG current change (%, negative = inhibition) at 10uM” value is on record as 4.35%. Then `CCCc1cc(C(=O)N2CCCC(N3CCN(c4ccccc4F)CC3)C2)n(C)n1` (stereo not shown), with -20.9%.
